Assay results from PMC4336329 (PLoS ONE, 2015).
Among all 310,000 compounds or so, about 14,000 (4.5%) showed an effect of 50% or more. Effects have a minus sign here. The list shows a part of the results.

These compounds were tested against human ether-à-go-go-related gene (hERG) potassium channel (human, UniProt Q12809) (assay: primary screen, population patch clamp on CHO cells stably expressing hERG).
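Note: peak tail current of the secondary pulse compared with the same well before compound.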

Chain of human ether-à-go-go-related gene (hERG) potassium channel (Q12809 whole entry, looked up): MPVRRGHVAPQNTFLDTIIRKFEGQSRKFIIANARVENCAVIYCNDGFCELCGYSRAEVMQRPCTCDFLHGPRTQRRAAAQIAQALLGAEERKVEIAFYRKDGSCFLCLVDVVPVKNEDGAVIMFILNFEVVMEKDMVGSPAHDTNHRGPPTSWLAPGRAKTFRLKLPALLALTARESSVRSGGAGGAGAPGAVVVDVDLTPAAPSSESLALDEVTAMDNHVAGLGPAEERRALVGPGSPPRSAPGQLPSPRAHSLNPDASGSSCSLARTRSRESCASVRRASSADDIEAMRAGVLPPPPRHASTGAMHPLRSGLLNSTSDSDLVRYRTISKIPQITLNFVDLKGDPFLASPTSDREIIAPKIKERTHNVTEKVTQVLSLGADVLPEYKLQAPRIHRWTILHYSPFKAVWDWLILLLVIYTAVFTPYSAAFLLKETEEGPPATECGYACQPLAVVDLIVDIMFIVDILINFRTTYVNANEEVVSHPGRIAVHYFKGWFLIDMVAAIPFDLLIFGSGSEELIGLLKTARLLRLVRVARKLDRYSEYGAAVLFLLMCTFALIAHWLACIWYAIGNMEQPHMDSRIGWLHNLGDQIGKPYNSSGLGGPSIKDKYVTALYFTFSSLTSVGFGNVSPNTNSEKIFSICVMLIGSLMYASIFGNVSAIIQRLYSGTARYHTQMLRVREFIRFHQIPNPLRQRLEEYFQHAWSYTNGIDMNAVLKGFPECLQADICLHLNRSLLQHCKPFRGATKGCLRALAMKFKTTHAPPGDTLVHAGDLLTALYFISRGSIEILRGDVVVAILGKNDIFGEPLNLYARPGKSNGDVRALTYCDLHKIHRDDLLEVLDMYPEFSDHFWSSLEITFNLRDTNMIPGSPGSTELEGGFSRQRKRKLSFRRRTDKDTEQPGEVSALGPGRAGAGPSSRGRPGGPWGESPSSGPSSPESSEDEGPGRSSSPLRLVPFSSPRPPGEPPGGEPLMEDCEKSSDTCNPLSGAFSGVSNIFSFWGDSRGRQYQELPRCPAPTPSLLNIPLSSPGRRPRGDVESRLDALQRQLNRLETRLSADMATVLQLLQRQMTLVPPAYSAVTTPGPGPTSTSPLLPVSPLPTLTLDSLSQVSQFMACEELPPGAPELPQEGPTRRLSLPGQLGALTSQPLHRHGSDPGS

Structure (SMILES)	hERG current change (%, negative = inhibition) at 10uM [%]
CCCCOc1ccc(Cn2c(=O)oc3ccccc32)cc1	16.8
CCCCCn1c(=O)[nH]c2cc(C(=O)NCc3ccco3)ccc2c1=O	7.43
COc1ccc(CN2C(=O)CCC2(C)C(=O)NC2CCCC2)c(OC)c1 (stereo not shown)	0.268
Cc1ccccc1NS(=O)(=O)c1cccc(-c2nnc(-c3ccccc3)o2)c1	-17
CCOC(=O)CCc1c(C)c2ccc(OC(C)C(=O)OCC)c(C)c2oc1=O (stereo not shown)	-49.3
CC(C)c1ccc(N(C(=O)C(F)(F)F)C(C(=O)NC2CCCCC2)c2ccncc2)cc1 (stereo not shown)	-6.83
CCOC(=O)c1ccc(NC=C2C(=O)OC3(CCCCC3)OC2=O)cc1	14.4
COc1cccc(Nc2nnc(SCC(=O)N3CC(=O)Nc4ccccc43)s2)c1	4.21
C=CCNC(=S)NNc1nc2c(c(=O)[nH]1)C1(CCCC1)Cc1ccccc1-2	20.8
CCOC(=O)C(C)n1cnc2c(nnn2-c2ccccc2)c1=O (stereo not shown)	-19.6
Cl.N=C(c1cccc([N+](=O)[O-])c1)N1CCCCCC1	2.26
C#C[C@]1(O)CC[C@H]2[C@@H]3CCC4=CC(=O)CC[C@@H]4[C@H]3CC[C@@]21C	19.2
Cc1ccc(S(=O)(=O)NCCC(=O)N2CCC(Cc3ccccc3)CC2)cc1	-34
O=C(COc1ccccc1[N+](=O)[O-])Nc1ccc2c(c1)OCO2	12.8
CCOC(=O)C1(Cc2ccccc2)CCCN(Cc2cccc(C(C)=O)c2)C1 (stereo not shown)	-2.24
Cc1nn(CC(=O)NCCc2ccccc2)c(=O)c2ccccc12	-8.9
CCN(CC)C(=O)CSc1ncnc2sc(-c3ccccc3)cc12	-20.6
O=C(NC1CCCC1)C1CCC(=O)N1C1CCCCC1 (stereo not shown)	-2.9
Cc1ccccc1C(=O)Nc1ccnn1C1CCN(CC2CC=CCC2)CC1 (stereo not shown)	-72.6
COc1cc2[nH]c(=S)n(CCCN3CCOCC3)c(=O)c2cc1OC	3.62
O=C(NCC(=O)N(CC1CCCO1)C(C(=O)NC1CCCCC1)c1ccccc1)c1cccs1 (stereo not shown)	-7.17
O=C(CSc1ccc(Cl)cc1)Nc1ccc(N2CCN(c3ccccc3)CC2)c(F)c1	24.9

Structure (SMILES)	hERG current change (%, negative = inhibition) at 10uM [%]
CC(=O)OC1C(N2CCCCC2)c2c(ccc(/C=C/C(=O)N3CCCCC3)c2O)OC1(C)C (stereo not shown)	7.65
Cc1ccc(C)c(NC(=O)Cn2c([N+](=O)[O-])cnc2C)c1	23.5
CCCn1c(=O)n(C)c(=O)c2c(SCC(=O)NCc3ccco3)nc(C3CC3)nc21	-7.62
O=C(NCCN1CCCC1)C1CCN(S(=O)(=O)N2CCC3(CC2)OCCO3)CC1	20.5
CCOC(=O)NC(=O)CSc1nc2ccc(OCC)cc2[nH]1	4.03
Cc1nn(-c2ccc(Cl)cc2)c(=O)c2c(C)noc12	0.0355
CCC(C)(C)NC(=O)C1CCC(CNS(=O)(=O)c2cccc3nsnc23)CC1 (stereo not shown)	-9.15
COCC(=O)Nc1cccc(-c2ccc3nncn3n2)c1	9.97
O=C(CN1C(=O)C2CCCCC2C1=O)OCC(=O)c1ccc(F)cc1 (stereo not shown)	1.85
C/C(=N\Nc1cccc(C(=O)O)c1)c1ccc2c(c1)Nc1ccccc1S2	8.98
CC(NC(=O)C12CC3CC(CC(C3)C1)C2)C(=O)N/N=C/C1=C(N2CCOCC2)C(=C\c2ccccc2)/CC1 (stereo not shown)	-28.8
O=C(CS(=O)(=O)Cc1ccccc1)Nc1nnc(C(F)(F)F)s1	25
CC1CN(C)C(C)c2c1oc1ccc(N)cc21.O=C(O)/C=C/C(=O)O (stereo not shown)	-28.4
Cc1ccc(N2C(=O)NC(=O)/C(=C\C=C\c3ccco3)C2=O)cc1	25
C/C=C/c1ccc(OCC(=O)Nc2cc(C(F)(F)F)ccc2N2CCOCC2)c(OC)c1	15.6
COc1cc(C(=O)NNC(=O)CCOc2cccc(Br)c2)cc(OC)c1OC	-19.4
Cc1ccc(S(=O)(=O)N2CCN(C(=O)CN3CCCSc4ccccc43)CC2)cc1	-17.9
Nc1nc(Sc2ccc(C(F)(F)F)cn2)n[nH]1	17
CCN1CCN(c2cc(C)c3cc(NC(=S)N4CCN(c5ccc(F)cc5)CC4)ccc3n2)CC1	-0.511
Cc1ccc(C(=O)c2oc3ccc(Cl)cc3c2NC(=O)CN2CCN(C)CC2)cc1	-74.3
O=C(CCNS(=O)(=O)c1cccc2nsnc12)N1CC(=O)N(CCc2ccccc2)C(=O)C1	-43
CC1CCc2c(sc(NC(=O)c3ccccc3C(=O)O)c2C#N)C1 (stereo not shown)	-0.906

Structure (SMILES)	hERG current change (%, negative = inhibition) at 10uM [%]
Cc1cc(C(=O)CSc2nc3ccc(Cl)cc3[nH]2)c(C)n1CC1CCCO1 (stereo not shown)	-2.01
CN(C)S(=O)(=O)c1ccc(C(=O)NCC2CC2(Cl)Cl)cc1 (stereo not shown)	5.21
Cc1cc(-n2cccn2)ccc1CN1CCN(C2CCCC2)C(CCO)C1 (stereo not shown)	-73.5
CC1(C)C2CCC1(CS(=O)(=O)NCc1ccc(C(=O)O)cc1)C(=O)C2 (stereo not shown)	11.2
CCC(=O)N1CCN(c2ccccc2NC(=S)NC(=O)c2ccco2)CC1	-47.5
N/C(=N\OC(=O)c1ccc(Cl)cc1)c1ccc(Cl)cc1	7.85
COC1CCCN(C(=O)c2ccc3oc(Cc4ccc(Cl)cc4)nc3c2)C1 (stereo not shown)	-17.5
Cc1cccc(NC(=O)CSc2nnnn2-c2ccc3c(c2)OCCO3)n1	0.764
Cc1ccccc1OCCC(=O)Nc1ccc(N2CCOCC2)cc1N1CCOCC1	-27.6
O=C1C(Cc2ccccc2)NC(=S)N1c1ccccc1 (stereo not shown)	17.1
CCCCOc1ccc(N2CC(C(=O)NCc3ccco3)CC2=O)cc1 (stereo not shown)	-14.5
O=C(NCC1CCCO1)c1cc2cc(F)ccc2[nH]1 (stereo not shown)	9.11
O=C(COC(=O)c1cnccn1)c1cccc([N+](=O)[O-])c1	14.4
CCCCN(C(=O)c1ccco1)C1CCS(=O)(=O)C1 (stereo not shown)	0.36
Cc1ccc(C2=NN(C(=O)c3ccccc3F)C(c3ccccc3F)C2)cc1 (stereo not shown)	19
Cc1[nH]c2ccccc2c1C(=O)CSc1ccccc1	-10.9
COc1nc(C)ccc1-c1noc(-c2ccccn2)n1	-0.908
CC(C)(C)NC(=O)CSc1nc2ccc(NC(=O)CSc3nnc(N)s3)cc2s1	16.2
O=C(NCc1ccco1)c1nc2ncccn2n1	3.95
Cc1ccc(NC(=O)CCNC(=O)c2ccco2)cc1Cl	5.16
CCc1ccc(NC2=CC(=O)CC(C)(C)C2)cc1	-1.02
COC(=O)c1cc(NC(=O)C(C)c2ccc(CC(C)C)cc2)ccc1O (stereo not shown)	-4.56

Structure (SMILES)	hERG current change (%, negative = inhibition) at 10uM [%]
O=C(C1=C[C@@H](c2ccc(C(F)(F)F)cc2)C[C@@H](OCCCCO)O1)N1CCN(Cc2ccc3c(c2)OCO3)CC1	-68.8
CC(=O)Nc1ccc(S(=O)(=O)Nc2nnc(CC(C)(C)C)s2)cc1	5.08
Cc1cc(C)c(NC(=O)Cn2c([N+](=O)[O-])cnc2C)c(C)c1	9.46
CC(=O)Nc1ccc(S(=O)(=O)n2cnc3ccccc32)cc1	5.56
CC(C)Oc1ccc(S(=O)(=O)N2CCOCC2)cc1NC(=O)CN1C(=O)NC2(CCCC2)C1=O	-17.8
CCOc1ccc(N2C(=O)c3cccnc3C2Nc2ccc(C)cc2)cc1 (stereo not shown)	-6.58
COCc1nnc(NS(=O)(=O)c2c(C)cc(C)cc2C)s1	-2.31
CN1CCCC(OC(=O)c2ccccc2F)C1.Cl (stereo not shown)	0.787
Cc1cc(C)cc(NC(=O)CSCc2cc(=O)n3ccsc3n2)c1	13.3
O=c1c2ccccc2nc(-c2ccco2)n1-c1ccncc1	2.31
CC1=CC(C)(C)N2C(=O)C(=O)c3cc(OC(=O)c4ccco4)cc1c32	-45.8
Cc1ccc(-n2nnc(-c3nccn3C)n2)cc1	3.12
COc1ccc(C(c2ccc(OC)cc2)C(Cl)(Cl)Cl)cc1	14.1
O=C(NC1CCCCC1)C1CCC(CNS(=O)(=O)c2ccccc2)CC1 (stereo not shown)	10.3
Cc1ccc(NC(=O)NC2CCCCC2)cc1S(=O)(=O)N1CCOCC1	8.15
COc1cccc2cc(C(=O)C3=C(O)C(=O)N(CCN4CCOCC4)C3c3ccc(C(C)(C)C)cc3)oc12 (stereo not shown)	14.7
O=C1CSC(c2cccnc2)N1CCc1ccccn1 (stereo not shown)	16.4
Cc1ccc(Nc2nc3ccccc3n3cnnc23)cc1C	15.5
Nc1cc(S(=O)(=O)N2CCCCC2)ccc1N1CCCCC1	-1.62
CCCCc1cc(=O)oc2cc(OCC(=O)NCC3CCC(C(=O)O)CC3)ccc12 (stereo not shown)	18
O=C(NCC1CCCCC1)c1ccc([N+](=O)[O-])cc1	-16
COc1cc(C(=O)OC(C)C(=O)NC2CCCCC2C)c([N+](=O)[O-])cc1OC (stereo not shown)	-11.6
